Reference: a collection of fitness landscapes (doi:10.1126/science.1257360)
Some of the results follow.

B1: PhoQ; a variant is named by its letters at X, in order, P23837 (parent)
chain: MKKLLRLFFPLSLRVRFLLATAAVVLVLSLAYGMVALIGYSVSFDKTTFRLLRGESNLFYTLAKWENNKLHVELPENIDKQSPTMTLIYDENGQLLWAQRDVPWLMKMIQPDWLKSNGFHEIEADVNDTSLLLSGDHSIQQQLQEVREDDDDAEMTHSVAVNVYPATSRMPKLTIVVVDTIPVELKSSYMVWSWFIYVLSANLLLVIPLLWVAAWWSLRPIEALAKEVRELEEHNRELLNPATTRELTSLVRNLNRLLKSERERYDKYRTTLTDLTHSLKTPLXXLQXXLRSLRSEKMSVSDAEPVMLEQISRISQQIGYYLHRASMRGGTLLSRELHPVAPLLDNLTSALNKVYQRKGVNISLDISPEISFVGEQNDFVEVMGNVLDNACKYCLEFVEISARQTDEHLYIVVEDDGPGIPLSKREVIFDRGQRVDTLRPGQGVGLAVAREITEQYEGKIVAGESMLGGARMEVIFGRQHSAPKDE

Variants of: B1
Experiment: enrichment ratio after two sorts for PhoP signalling (ratio (wild type AVST 3.29)); higher = more functional
Settings: with PhoP (E. coli)

| Variant | enrichment ratio |
| --- | --- |
| RHAM | ≤ 0.25 |
| FVRK | ≤ 0.25 |
| MGHR | ≤ 0.25 |
| RDFH | ≤ 0.25 |
| RASV | ≤ 0.25 |
| YLYS | ≤ 0.25 |
| YAQN | ≤ 0.25 |
| DECR | ≤ 0.25 |
| ATRC | ≤ 0.25 |
| GRPW | ≤ 0.25 |
| YYIL | ≤ 0.25 |
| WPKI | ≤ 0.25 |
| DVEQ | ≤ 0.25 |
| KYHH | ≤ 0.25 |
| DDQP | ≤ 0.25 |
| FDDQ | ≤ 0.25 |
| GTLM | 14.5 |
| QIIR | ≤ 0.25 |
| MFPH | 0.547 |
| LCCK | ≤ 0.25 |
| NIVQ | ≤ 0.25 |
| HRGW | ≤ 0.25 |
| MDDP | ≤ 0.25 |
| WQLR | ≤ 0.25 |
| SCGQ | 3.23 |
| AVSF | 9.87 |

| Variant | enrichment ratio |
| --- | --- |
| HIQN | ≤ 0.25 |
| YITS | 0.602 |
| THRG | ≤ 0.25 |
| RMKG | ≤ 0.25 |
| WACR | ≤ 0.25 |
| LDQL | ≤ 0.25 |
| GKID | ≤ 0.25 |
| NFML | ≤ 0.25 |
| YRCA | ≤ 0.25 |
| GMPQ | ≤ 0.25 |
| DGYL | ≤ 0.25 |
| NMTC | ≤ 0.25 |
| SMNQ | ≤ 0.25 |
| VDKV | ≤ 0.25 |
| WCWL | ≤ 0.25 |
| QIHY | ≤ 0.25 |
| HVYW | ≤ 0.25 |
| LDPI | ≤ 0.25 |
| ICLI | 5.89 |
| ECNT | ≤ 0.25 |
| PRKG | ≤ 0.25 |
| VTMN | ≤ 0.25 |
| GVIQ | ≤ 0.25 |
| RANY | ≤ 0.25 |
| FEVP | ≤ 0.25 |
| PLDG | ≤ 0.25 |

| Variant | enrichment ratio |
| --- | --- |
| IHWM | ≤ 0.25 |
| EMVH | ≤ 0.25 |
| YDFP | ≤ 0.25 |
| TTAF | 14 |
| NWWA | ≤ 0.25 |
| PSGC | ≤ 0.25 |
| VFVH | ≤ 0.25 |
| KFLI | ≤ 0.25 |
| ELQR | ≤ 0.25 |
| DFWI | ≤ 0.25 |
| MYSG | ≤ 0.25 |
| NSHA | ≤ 0.25 |
| TARE | ≤ 0.25 |
| MGPG | ≤ 0.25 |
| IMLW | ≤ 0.25 |
| NNRS | ≤ 0.25 |
| TKHY | ≤ 0.25 |
| FSWR | ≤ 0.25 |
| VEND | ≤ 0.25 |
| VWCP | ≤ 0.25 |
| FYKS | ≤ 0.25 |
| YICK | ≤ 0.25 |
| MHAS | ≤ 0.25 |
| HARY | ≤ 0.25 |
| FDQC | ≤ 0.25 |
| GVGN | ≤ 0.25 |

| Variant | enrichment ratio |
| --- | --- |
| RKLI | ≤ 0.25 |
| ADGK | ≤ 0.25 |
| SMTA | 11.8 |
| PMRP | ≤ 0.25 |
| VEHD | ≤ 0.25 |
| QRAG | ≤ 0.25 |
| EKAS | ≤ 0.25 |
| DVIF | ≤ 0.25 |
| DFWD | ≤ 0.25 |
| ERHS | ≤ 0.25 |
| WIPP | ≤ 0.25 |
| FMDV | ≤ 0.25 |
| EHWH | ≤ 0.25 |
| FYRW | ≤ 0.25 |
| SKSF | ≤ 0.25 |
| SVGA | 0.974 |
| DSRY | ≤ 0.25 |
| KTLM | 2.5 |
| RFES | ≤ 0.25 |
| SNKW | ≤ 0.25 |
| GLLT | 0.268 |
| SQME | 2.06 |
| HMHD | ≤ 0.25 |
| TENF | ≤ 0.25 |
| WNHF | ≤ 0.25 |
| TKHN | ≤ 0.25 |

| Variant | enrichment ratio |
| --- | --- |
| LADF | ≤ 0.25 |
| FFIK | ≤ 0.25 |
| HFCR | ≤ 0.25 |
| DCNC | ≤ 0.25 |
| RISA | ≤ 0.25 |
| FLHF | ≤ 0.25 |
| LKCD | ≤ 0.25 |
| ENEV | ≤ 0.25 |
| KHHY | ≤ 0.25 |
| YMCT | ≤ 0.25 |
| HCCY | ≤ 0.25 |
| WLFA | ≤ 0.25 |
| WYSF | ≤ 0.25 |
| DVSN | ≤ 0.25 |
| SNYM | ≤ 0.25 |
| WQAP | ≤ 0.25 |
| RVMQ | ≤ 0.25 |
| DCYV | ≤ 0.25 |
| MALF | 4.89 |
| FCIW | ≤ 0.25 |
| MWCG | ≤ 0.25 |
| TLQY | 5.21 |
| PKGA | ≤ 0.25 |
| MPLE | ≤ 0.25 |
| ITII | ≤ 0.25 |
| QFYF | ≤ 0.25 |

| Variant | enrichment ratio |
| --- | --- |
| SPYN | ≤ 0.25 |
| WFCW | ≤ 0.25 |
| GQMP | ≤ 0.25 |
| IGEC | ≤ 0.25 |
| NLNT | ≤ 0.25 |
| IIPL | ≤ 0.25 |
| WIFY | ≤ 0.25 |
| RSRS | ≤ 0.25 |
| TNDR | ≤ 0.25 |
| KSPL | ≤ 0.25 |
| HWKK | ≤ 0.25 |
| HKDN | ≤ 0.25 |
| NTHM | ≤ 0.25 |
| SKWL | ≤ 0.25 |
| TWYW | ≤ 0.25 |
| SMTP | ≤ 0.25 |
| WPYE | ≤ 0.25 |
| VTCC | ≤ 0.25 |
| YTMA | ≤ 0.25 |
| ENFT | ≤ 0.25 |
| GFHM | ≤ 0.25 |
| RDIT | ≤ 0.25 |
| ANRK | ≤ 0.25 |
